The source of these data is the supplement of paper PMC4967469.

By IC50 is meant the dose at which the fit gives 50% viability; a limit (>, <) means that the fit lies beyond the doses tested. For AUC the same curve is integrated over the 256-fold range of doses and scaled to a fraction; values near 1 show little effect. An inferred top dose is not printed in the source and was worked back from the curve model. For some of these results: Drugs with an entry number were screened twice under separate entries, and the two screens often disagree. Some results are limits rather than exact numbers.

Compound in the first assay: COc1cc(-c2nn([C@H]3CC[C@H](N4CCN(C(C)=O)CC4)CC3)c3ncnc(N)c23)ccc1NC(=O)c1cc2ccccc2n1C [A-770041]
As to the kind of experiment: Viability of human cancer cell lines after 72 h of drug (GDSC screen). The following applies: top dose 5.12 µM; top dose inferred. On the procedure:
(§1)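 Human cancer cell lines in 384-well plates, medium with 10% serum, drug for 72 h over a 256-fold dose range (nine 2-fold or five 4-fold steps up to the top dose). Adherent lines were fixed and stained with the nucleic acid dye Syto60, suspension lines read with resazurin; signal relative to control wells, capped at 0 and 100%. One two-parameter sigmoid per drug and line, fitted in a mixed model over all curves with the slope shared within a line.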
Turning to SK-MEL-2 (melanoma, adherent), the AUC amounted to 0.972 and the IC50 was over 5.12 µM.

In the case of SK-MM-2 (myeloma, suspension), the AUC is 0.969 and the IC50 was over 5.12 µM.

As for SK-PN-DW (Ewing sarcoma, adherent), the AUC turned out to be 0.986 and the IC50 is over 5.12 µM.

In the case of SLVL (B-cell lymphoma, suspension), the AUC came to 0.772 and the IC50 came out at 2.1 µM.

Turning to SNB75 (glioma, adherent), the AUC came to 0.524 and the IC50 was found to be 0.383 µM.

On to SR (lymphoid neoplasm, suspension), for which the AUC amounted to 0.863 and the IC50 is 3.71 µM.

SW684 (fibrosarcoma, adherent): the AUC stood at 0.892 and the IC50 is over 5.12 µM.

On to TE-1 (oesophagus, adherent), for which the AUC came to 0.687 and the half-maximal inhibitory concentration (IC50) came to 1.24 µM.

As to TE-5 (oesophagus, adherent), the AUC was 0.931 and the IC50 is over 5.12 µM.

Consider TE-8 (oesophagus, adherent), for which the AUC came out at 0.478 and the IC50 stood at 0.277 µM.

For TE-9 (oesophagus, adherent), the AUC was determined as 0.922 and the IC50 is over 5.12 µM.

As to TE-12 (oesophagus, suspension), the AUC was found to be 0.542 and the IC50 was found to be 0.427 µM.

Turning to TGBC1TKB (biliary tract, adherent), the AUC came out at 0.775 and the IC50 was 2.01 µM.

On to TGW (neuroblastoma, adherent), for which the AUC was 0.867 and the IC50 was 3.55 µM.

Consider TK10 (kidney, adherent), for which the AUC was 0.604 and the IC50 was 0.656 µM.

Compound in a further assay: COc1cc(N2CCN(C)CC2)ccc1Nc1ncc2c(n1)N(C)c1ccccc1C(=O)N2C [XMD8-85]
The description is as above. Conditions: top dose 8 µM; top dose inferred. The procedure:
as §1
As to SH-4 (melanoma, adherent), the AUC worked out at 0.696 and the IC50 came out at 2.44 µM.

SIMA (neuroblastoma, adherent): the AUC is 0.978 and the IC50 was over 8 µM.

As for SJSA-1 (bone, adherent), the AUC stood at 0.834 and the IC50 was 6.17 µM.

For SK-LMS-1 (soft tissue, adherent), the AUC was determined as 0.917 and the IC50 was over 8 µM.

Turning to SK-MEL-1 (melanoma, suspension), the AUC is 0.969 and the IC50 is over 8 µM.

As to SK-MEL-2 (melanoma, adherent), the AUC was 0.983 and the IC50 is over 8 µM.

As to SK-MM-2 (myeloma, suspension), the AUC was 0.755 and the IC50 came out at 2.82 µM.

Consider SK-PN-DW (Ewing sarcoma, adherent), for which the AUC amounted to 0.913 and the IC50 was over 8 µM.

As for SLVL (B-cell lymphoma, suspension), the AUC was 0.864 and the 50% inhibitory concentration (IC50) was 7.66 µM.

For SNB75 (glioma, adherent), the AUC came out at 0.795 and the IC50 was 5.85 µM.

SR (lymphoid neoplasm, suspension): the AUC turned out to be 0.859 and the IC50 amounted to 5.6 µM.

For SW684 (fibrosarcoma, adherent), the AUC was found to be 0.972 and the IC50 is over 8 µM.

Regarding TE-1 (oesophagus, adherent), the AUC was found to be 0.874 and the IC50 was over 8 µM.

In the case of TE-5 (oesophagus, adherent), the AUC was determined as 0.873 and the IC50 was over 8 µM.

For TE-8 (oesophagus, adherent), the AUC came out at 0.977 and the IC50 was over 8 µM.

TE-9 (oesophagus, adherent): the AUC worked out at 0.894 and the IC50 was over 8 µM.

As to TE-12 (oesophagus, suspension), the AUC worked out at 0.831 and the IC50 is 6.64 µM.

Take TGBC1TKB (biliary tract, adherent): the AUC is 0.929 and the 50% inhibitory concentration (IC50) was over 8 µM.

Turning to TGW (neuroblastoma, adherent), the AUC turned out to be 0.975 and the IC50 was over 8 µM.

For TK10 (kidney, adherent), the AUC amounted to 0.894 and the IC50 is over 8 µM.

Compound in a further assay: Cc1cc(N2CCOCC2)cc2[nH]c(-c3c(NC[C@@H](O)c4cccc(Cl)c4)cc[nH]c3=O)nc12 [BMS-536924]
Described as above. The following applies: top dose 4 µM; screen: GDSC drug entry 1091; top dose inferred. The procedure:
as §1
As to SH-4 (melanoma, adherent), the AUC was 0.647 and the 50% inhibitory concentration (IC50) stood at 0.8 µM.

As to SIMA (neuroblastoma, adherent), the AUC is 0.838 and the 50% inhibitory concentration (IC50) stood at 3.24 µM.

In the case of SJSA-1 (bone, adherent), the AUC stood at 0.957 and the IC50 is over 4 µM.

For SK-LMS-1 (soft tissue, adherent), the AUC came to 0.888 and the IC50 was over 4 µM.

Consider SK-MEL-1 (melanoma, suspension), for which the AUC worked out at 0.993 and the 50% inhibitory concentration (IC50) is over 4 µM.

SK-MEL-2 (melanoma, adherent): the AUC worked out at 0.91 and the IC50 was over 4 µM.

As for SK-MM-2 (myeloma, suspension), the AUC amounted to 0.735 and the IC50 was 1.21 µM.

SK-PN-DW (Ewing sarcoma, adherent): the AUC is 0.882 and the IC50 is over 4 µM.

As for SLVL (B-cell lymphoma, suspension), the AUC turned out to be 0.942 and the IC50 was over 4 µM.

SNB75 (glioma, adherent): the AUC amounted to 0.953 and the IC50 is over 4 µM.

Take SR (lymphoid neoplasm, suspension): the AUC worked out at 0.826 and the IC50 was determined as 2.1 µM.

Consider SW684 (fibrosarcoma, adherent), for which the AUC was found to be 0.977 and the half-maximal inhibitory concentration (IC50) is over 4 µM.

For TE-1 (oesophagus, adherent), the AUC amounted to 0.858 and the IC50 is over 4 µM.

Turning to TE-5 (oesophagus, adherent), the AUC turned out to be 0.981 and the IC50 was over 4 µM.

As to TE-8 (oesophagus, adherent), the AUC came to 0.824 and the IC50 was 2.61 µM.

In the case of TE-9 (oesophagus, adherent), the AUC is 0.919 and the IC50 is over 4 µM.

Take TE-12 (oesophagus, suspension): the AUC amounted to 0.788 and the IC50 is 2.19 µM.

For TGBC1TKB (biliary tract, adherent), the AUC was 0.879 and the IC50 is over 4 µM.

As to TGW (neuroblastoma, adherent), the AUC worked out at 0.892 and the IC50 came out at 3.53 µM.

On to TK10 (kidney, adherent), for which the AUC came out at 0.924 and the 50% inhibitory concentration (IC50) is over 4 µM.

Still in this assay, the particulars now being: top dose 5.12 µM; screen: GDSC drug entry 62.
Turning to SH-4 (melanoma, adherent), the AUC was found to be 0.626 and the half-inhibitory concentration (IC50) was 0.863 µM.

With SIMA (neuroblastoma, adherent), the AUC was found to be 0.922 and the IC50 was over 5.12 µM.

For SJSA-1 (bone, adherent), the AUC stood at 0.578 and the IC50 came to 0.537 µM.

For the cell line SK-LMS-1 (soft tissue, adherent), the AUC amounted to 0.841 and the IC50 came out at 3.3 µM.

Consider SK-MEL-1 (melanoma, suspension), for which the AUC is 0.948 and the IC50 was over 5.12 µM.

With SK-MEL-2 (melanoma, adherent), the AUC worked out at 0.912 and the IC50 was over 5.12 µM.

Turning to SK-MM-2 (myeloma, suspension), the AUC is 0.613 and the IC50 was found to be 0.665 µM.

Consider SK-PN-DW (Ewing sarcoma, adherent), for which the AUC was 0.779 and the IC50 was 2.17 µM.

SLVL (B-cell lymphoma, suspension): the AUC was found to be 0.894 and the IC50 was over 5.12 µM.

Turning to SNB75 (glioma, adherent), the AUC came to 0.724 and the IC50 stood at 1.89 µM.
